According to US20240269278A1, “ANTI-CD47 ANTIBODY FOR COMBINED TREATMENT OF BLOOD TUMOR” (Nanjing Shunxin Pharmaceuticals Co., Ltd. of Chiatai …, priority 2021, published 2024):

How the values were obtained:
[1] = tested on: HL60 cells; assay: Promotion of macrophage phagocytosis of tumor cells (flow cytometry); type: cell-based, human; conditions: CFSE-labeled HL60 cells, human macrophages
How it was run: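 Human blood monocytes differentiated into macrophages with 100 ng/mL M-CSF for 7 days. CFSE-labelled HL60 cells preincubated 1-2 h at 37 °C with anti-CD47 antibodies at 10 or 1 μg/mL, then co-cultured with macrophages 2-4 h. Macrophages stained for CD14/CD11b; phagocytosis rate (%) measured by flow cytometry.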

[2] = Thermostability assay based on Nano DSF (Prometheus NT.48); type: physicochemical
Procedure: The high-throughput protein stability analyzer Prometheus NT.48 is an instrument for acquiring various types of data such as protein molecular structure stability, aggregation stability, and colloid dispersion stability. The melting temperatures (Tm) and the aggregation temperatures (Tagg) of the anti-CD47 chimeric antibodies and the anti-CD47 humanized antibodies were determined using this instrument.

[3] = tested on: Raji cells; assay: Hematologic tumor mouse model of lymphoma Raji cells, survival; type: in vivo, NOD/SCID mice; conditions: 10 mg/kg intraperitoneal, 21 consecutive days
Procedure: A hematologic tumor mouse model was established using hematologic tumor Raji cells. The anti-CD47 antibodies were applied to the model for the evaluation of the pharmacodynamic activity.
A suspension of Raji cells in a PBS buffer was prepared at a concentration of 5×10^6 cells/mL, and was injected into female NOD/SCID mice via the tail vein at 0.1 mL/mouse. […] The administration was performed by intraperitoneal injection in doses of 10 mg/kg for 21 consecutive days. The survival time of the animals was observed.

[4] = Toxicity assay in single administration; type: in vivo, B-hCD47 mice
Text: Since CD47 is expressed on red cells and plays a role in clearing aged red cells, the toxic effects of the anti-CD47 antibodies in B-hCD47 mice were compared.

[5] = 2 days after administration, single 10 mpk via tail vein
[6] = 4 days after administration, single 10 mpk via tail vein
[7] = 7 days after administration, single 10 mpk via tail vein
[8] = 10 days after administration, single 10 mpk via tail vein
[9] = 14 days after administration, single 10 mpk via tail vein
[10] = day 0, single 10 mpk via tail vein

B1: hz3F10-6.1: humanized anti-CD47 antibody, heavy chain SEQ ID NO: 129, light chain SEQ ID NO: 131 (antibody)
heavy: QVQLVQSGAEVKKPGSSVKVSCKASGYTFSRYWIEWVRQAPGQGLEWMGEFIPGSDTTNYAQKFQGRVTITADISTSTAYMELSSLRSEDTAVYYCARGGLRRMDYWGQGTLVTVSSASTKGPSVFPLAPCSRSTSESTAALGCLVKDYFPEPVTVSWNSGALTSGVHTFPAVLQSSGLYSLSSVVTVPSSSLGTKTYTCNVDHKPSNTKVDKRV[omitted - human IgG4 Fc with S228P (EU numbers)]
light: DIQMTQSPSSLSASVGDRVTITCRASSSVSSTYLHWYQQKPGKAPKLWIYTTSTLASGVPSRFSGSGSGTSYTLTISSLQPEDFATYYCQQFSESTWTFGQGTKLEIKRTVAAPSVFIFPPSDEQLKSGTASVVCLLNNFYPREAKVQWKVDNALQSGNSQESVTEQDSKDSTYSLSSTLTLSKADYEKHKVYACEVTHQGLSSPVTKSFNRGEC
modifications: heavy chain; light chain
rate of phagocytosis ([1]; 1 μg/mL antibody): 47.57%
rate of phagocytosis ([1]; 10 μg/mL antibody): 60.91%
Tagg (aggregation temperature) [2]: 68.6 °C
Tm (melting temperature) [2]: 68.6 °C
anti-tumor activity (in words) [3]: showed anti-tumor activity
day on which all the animals in the group died [3]: 21 days
median survival time [3]: 17.5 days
Rate of change in HGB level (vs before administration) [4, 5]: −57.1%
Rate of change in RBC (vs before administration) [4, 5]: −56.7%
Rate of change in body weight (vs before administration) [4, 5]: −13.0%
Rate of change in HGB level (vs before administration) [4, 6]: −74.7%
Rate of change in RBC (vs before administration) [4, 6]: −75.6%
Rate of change in body weight (vs before administration) [4, 6]: −15.8%
Rate of change in HGB level (vs before administration) [4, 7]: −39.2%
Rate of change in RBC (vs before administration) [4, 7]: −38.7%
Rate of change in body weight (vs before administration) [4, 7]: −2.5%
Rate of change in HGB level (vs before administration) [4, 8]: −6.0%
Rate of change in RBC (vs before administration) [4, 8]: −6.6%
Rate of change in body weight (vs before administration) [4, 8]: −8.4%
Rate of change in HGB level (vs before administration) [4, 9]: −3.0%
Rate of change in RBC (vs before administration) [4, 9]: −2.0%
Rate of change in body weight (vs before administration) [4, 9]: 8.2%
Rate of change in HGB level (vs before administration) [4, 10]: 0.0%
Rate of change in RBC (vs before administration) [4, 10]: 0.0%
Rate of change in body weight (vs before administration) [4, 10]: 0.0%
course of body weight after administration (in words) ([4]; mouse, in vivo, 10 mg/kg): a decrease in body weight first and then an increase
